Some of the results follow.
How the values were obtained:
Assay in all cases: glycan array binding signal (z-score within array); higher = stronger binding
Conditions in all cases: glycan notation: IUPAC condensed, linker removed
[1] = target: Fuc(a1-2)[Gal(a1-3)]Gal(b1-4)Glc
How it was run: (§1)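 Arrays were curated from the Consortium for Functional Glycomics database, 3228 in total, and kept only where the protein sequence was available. Binding is expressed as a within-array Z-score. This score was averaged across arrays of the same protein sequence at different concentrations or buffers and across linkers, and negative values can be read as non-binding.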

[2] = target: Fuc(a1-2)[Gal(a1-3)]Gal(b1-4)GlcNAc
How it was run: as §1

[3] = target: Fuc(a1-2)[Gal(a1-3)]Gal(b1-4)GlcNAc(b1-2)Man(a1-3)[Fuc(a1-2)[Gal(a1-3)]Gal(b1-4)GlcNAc(b1-2)Man(a1-6)]Man(b1-4)GlcNAc(b1-4)GlcNAc
How it was run: as §1

[4] = target: Fuc(a1-2)[Gal(a1-3)]Gal(b1-4)GlcNAc(b1-2)Man(a1-3)[Fuc(a1-2)[Gal(a1-3)]Gal(b1-4)GlcNAc(b1-2)Man(a1-6)]Man(b1-4)GlcNAc(b1-4)[Fuc(a1-6)]GlcNAc
How it was run: as §1

[5] = target: Fuc(a1-2)[Gal(a1-3)]Gal(b1-4)GlcNAc(b1-3)GalNAc
How it was run: as §1

[6] = target: Fuc(a1-2)[Gal(a1-3)]Gal(b1-4)[Fuc(a1-3)]Glc
How it was run: as §1

[7] = target: Fuc(a1-2)[Gal(a1-3)]Gal(b1-4)[Fuc(a1-3)]GlcNAc
How it was run: as §1

[8] = target: Fuc(a1-2)[Gal(a1-3)]Gal(b1-4)[Fuc(a1-3)]GlcNAc(b1-3)GalNAc
How it was run: as §1

[9] = target: Fuc(a1-2)[Gal(a1-4)]Gal(b1-4)GlcNAc
How it was run: as §1

[10] = target: Fuc(a1-2)[GalNAc(a1-3)]Gal
How it was run: as §1

[11] = target: Fuc(a1-2)[GalNAc(a1-3)]Gal(b1-3)GalNAc(a1-3)[Fuc(a1-2)]Gal(b1-4)GlcNAc
How it was run: as §1

[12] = target: Fuc(a1-2)[GalNAc(a1-3)]Gal(b1-3)GlcNAc
How it was run: as §1

[13] = target: Fuc(a1-2)[GalNAc(a1-3)]Gal(b1-3)GlcNAc(b1-2)Man(a1-3)[Fuc(a1-2)[GalNAc(a1-3)]Gal(b1-3)GlcNAc(b1-2)Man(a1-6)]Man(b1-4)GlcNAc(b1-4)GlcNAc
How it was run: as §1

[14] = target: Fuc(a1-2)[GalNAc(a1-3)]Gal(b1-3)GlcNAc(b1-2)Man(a1-3)[Fuc(a1-2)[GalNAc(a1-3)]Gal(b1-3)GlcNAc(b1-2)Man(a1-6)]Man(b1-4)GlcNAc(b1-4)[Fuc(a1-6)]GlcNAc
How it was run: as §1

[15] = target: Fuc(a1-2)[GalNAc(a1-3)]Gal(b1-3)GlcNAc(b1-3)GalNAc
How it was run: as §1

[16] = target: Fuc(a1-2)[GalNAc(a1-3)]Gal(b1-4)Glc
How it was run: as §1

[17] = target: Fuc(a1-2)[GalNAc(a1-3)]Gal(b1-4)GlcNAc
How it was run: as §1

[18] = target: Fuc(a1-2)[GalNAc(a1-3)]Gal(b1-4)GlcNAc(b1-2)Man(a1-3)[Fuc(a1-2)[GalNAc(a1-3)]Gal(b1-4)GlcNAc(b1-2)Man(a1-6)]Man(b1-4)GlcNAc(b1-4)GlcNAc
How it was run: as §1

[19] = target: Fuc(a1-2)[GalNAc(a1-3)]Gal(b1-4)GlcNAc(b1-2)Man(a1-3)[Fuc(a1-2)[GalNAc(a1-3)]Gal(b1-4)GlcNAc(b1-2)Man(a1-6)]Man(b1-4)GlcNAc(b1-4)[Fuc(a1-6)]GlcNAc
How it was run: as §1

[20] = target: Fuc(a1-2)[GalNAc(a1-3)]Gal(b1-4)GlcNAc(b1-3)Gal(b1-4)GlcNAc
How it was run: as §1

[21] = target: Fuc(a1-2)[GalNAc(a1-3)]Gal(b1-4)GlcNAc(b1-3)Gal(b1-4)GlcNAc(b1-3)Gal(b1-4)GlcNAc
How it was run: as §1

[22] = target: Fuc(a1-2)[GalNAc(a1-3)]Gal(b1-4)GlcNAc(b1-3)GalNAc
How it was run: as §1

[23] = target: Fuc(a1-2)[GalNAc(a1-3)]Gal(b1-4)[Fuc(a1-3)]GlcNAc
How it was run: as §1

[24] = target: Fuc(a1-2)[GalNAc(a1-3)]Gal(b1-4)[Fuc(a1-3)]GlcNAc(b1-3)GalNAc
How it was run: as §1

[25] = target: Fuc(a1-2)[GalNAc(a1-4)]Gal(b1-4)GlcNAc
How it was run: as §1

[26] = target: Fuc(a1-2)[GalNAc(b1-3)]Gal
How it was run: as §1

Fuc(a1-3)GlcNAc = target: Fuc(a1-3)GlcNAc
How it was run: as §1

[27] = target: Fuc(a1-3)[Gal(b1-4)]Glc6S
How it was run: as §1

[28] = target: Fuc(a1-3)[Gal(b1-4)]GlcNAc
How it was run: as §1

[29] = target: Fuc(a1-3)[Gal(b1-4)]GlcNAc(b1-2)Man(a1-3)[Fuc(a1-3)[Gal(b1-4)]GlcNAc(b1-2)Man(a1-6)]Man(b1-4)GlcNAc(b1-4)GlcNAc
How it was run: as §1

[30] = target: Fuc(a1-3)[Gal(b1-4)]GlcNAc(b1-2)Man(a1-3)[Fuc(a1-3)[Gal(b1-4)]GlcNAc(b1-2)Man(a1-6)]Man(b1-4)GlcNAc(b1-4)[Fuc(a1-6)]GlcNAc
How it was run: as §1

[31] = target: Fuc(a1-3)[Gal(b1-4)]GlcNAc(b1-3)Gal(b1-3)[Fuc(a1-4)]GlcNAc
How it was run: as §1

[32] = target: Fuc(a1-3)[Gal(b1-4)]GlcNAc(b1-3)GalNAc
How it was run: as §1

[33] = target: Fuc(a1-3)[Gal(b1-4)]GlcNAc(b1-4)Gal(b1-4)[Fuc(a1-3)]GlcNAc
How it was run: as §1

[34] = target: Fuc(a1-3)[Gal(b1-4)]GlcNAc(b1-4)Gal(b1-4)[Fuc(a1-3)]GlcNAc(b1-4)Gal(b1-4)[Fuc(a1-3)]GlcNAc
How it was run: as §1

[35] = target: Fuc(a1-3)[Gal(b1-4)]GlcNAc(b1-6)GalNAc
How it was run: as §1

[36] = target: Fuc(a1-3)[Gal(b1-4)]GlcNAc(b1-6)[Gal(b1-3)GlcNAc(b1-3)]Gal(b1-4)Glc
How it was run: as §1

[37] = target: Fuc(a1-3)[Gal(b1-4)]GlcNAc(b1-6)[Neu5Ac(a2-3)Gal(b1-3)]GalNAc
How it was run: as §1

[38] = target: Fuc(a1-3)[Gal(b1-4)]GlcNAc6S
How it was run: as §1

[39] = target: Fuc(a1-3)[Gal3S(b1-4)]GlcNAc
How it was run: as §1

[40] = target: Fuc(a1-3)[Gal3S(b1-4)]GlcNAc6S
How it was run: as §1

[41] = target: Fuc(a1-3)[GalNAc(b1-4)]GlcNAc
How it was run: as §1

Fuc(a1-4)GlcNAc = target: Fuc(a1-4)GlcNAc
How it was run: as §1

Fuc(b1-3)GlcNAc = target: Fuc(b1-3)GlcNAc
How it was run: as §1

Gal(a1-2)Gal = target: Gal(a1-2)Gal
How it was run: as §1

B1: NanI (Corynebacterium diphtheriae), C6JSW7 (protein)
chain: MTNTLESNPMTTTTGALTITFATTCDGPLAHIPHHLDLNIIHGRIQGTTAHRRIDAEDPDGLDDGLPHHLCLSVDTTGTHLFIDGYEAFSTTQTEWFDTSELTLNPHGDLTIIDHQILNHAPTPRQARNLAPAAEPLVWFAGSHLSTRDTQRISHLTHGSLRLLMKTRGTGQGGVAFQAHTINGDLTLEIIDGTLIFSVRCHDEDYVRITAPGRWDDGQIYDVVIVCGRGATDIYVDGQQLIHSPGAAFFNDLSGELSVHIGTAASGVRLFGEVQSGMIYPHVFNHHQVQRLATVEPIATQALFDCLLDGAQSYRIPSLITTDSGVIIAGADKRVSIANDAPNDIDFVLRRSVDGGRTWQPPRTILQLPDTACVTDSVLLQDHTTGRIFAFLDQFPAGIGQPNAAFGTGFDADGNRIGHFADGSTCTMPREVDQLEASFFSDPHTAPPGIVFQHPSCHLWMLTSDDDGLTWSTPRDLTPDVKEEWMRFCGTSPGNGIQLQRDTHAGRLLIPMYYTKGDQFFAAALYSDDHGDTWHRGESPDLEMYESTLVEASDGSVLLWARNQHPSGAVAHARSTDGGHSWSQVTFNPNVPEIFSQPNALRVTNPDGIIFANASQLLPFRGRGVLRMSTNDGASWQHNRVFNPRHYVYQCMTQLPDGSIGLLWEREMQGLFFSIIPMTWIMQGYAL
[1]
  glycan array binding signal (z-score): 0.33
[2]
  glycan array binding signal (z-score): -0.375
[3]
  glycan array binding signal (z-score): 0.037
[4]
  glycan array binding signal (z-score): -0.392
[5]
  glycan array binding signal (z-score): 0.582
[6]
  glycan array binding signal (z-score): 0.454
[7]
  glycan array binding signal (z-score): 1.59
[8]
  glycan array binding signal (z-score): 2.08
[9]
  glycan array binding signal (z-score): -1.32
[10]
  glycan array binding signal (z-score): -0.206
[11]
  glycan array binding signal (z-score): -0.136
[12]
  glycan array binding signal (z-score): 0.087
[13]
  glycan array binding signal (z-score): -0.557
[14]
  glycan array binding signal (z-score): 1.1
[15]
  glycan array binding signal (z-score): 2.04
[16]
  glycan array binding signal (z-score): 0.192
[17]
  glycan array binding signal (z-score): -0.437
[18]
  glycan array binding signal (z-score): -0.223
[19]
  glycan array binding signal (z-score): 0.626
[20]
  glycan array binding signal (z-score): 0.289
[21]
  glycan array binding signal (z-score): 0.386
[22]
  glycan array binding signal (z-score): -0.468
[23]
  glycan array binding signal (z-score): -0.117
[24]
  glycan array binding signal (z-score): 3.26
[25]
  glycan array binding signal (z-score): -0.77
[26]
  glycan array binding signal (z-score): -1.17
Fuc(a1-3)GlcNAc
  glycan array binding signal (z-score): -0.875
[27]
  glycan array binding signal (z-score): -0.552
[28]
  glycan array binding signal (z-score): -0.556
[29]
  glycan array binding signal (z-score): -0.135
[30]
  glycan array binding signal (z-score): 4.32
[31]
  glycan array binding signal (z-score): -0.296
[32]
  glycan array binding signal (z-score): 0.87
[33]
  glycan array binding signal (z-score): 1.03
[34]
  glycan array binding signal (z-score): -1.05
[35]
  glycan array binding signal (z-score): 3.36
[36]
  glycan array binding signal (z-score): 0.74
[37]
  glycan array binding signal (z-score): -0.326
[38]
  glycan array binding signal (z-score): 0.132
[39]
  glycan array binding signal (z-score): -0.129
[40]
  glycan array binding signal (z-score): -0.146
[41]
  glycan array binding signal (z-score): -0.164
Fuc(a1-4)GlcNAc
  glycan array binding signal (z-score): -0.037
Fuc(b1-3)GlcNAc
  glycan array binding signal (z-score): -0.406
Gal(a1-2)Gal
  glycan array binding signal (z-score): -0.646
